Only a part is listed here, and it is no random draw. Inconclusive results are not listed. More than one record can exist for a structure, and the calls need not agree. Calls of active or inactive are those of the source. Unless noted, calls come from the whole dose curve; as a rule, active = well fitted curve in the direction sought with a large enough effect in the repeat runs; inconclusive = weak or mixed curves; inactive = no such curve, though single readings can be large; an effect the other way counts as inactive or inconclusive.
Potency is the fitted concentration of half-maximal effect.

The first assay can be described thus: qHTS assay to identify small molecule antagonists of the androgen receptor (AR) signaling pathway - cell viability counter screen (AID 743033; note: nearly all actives have a fitted effect of over 45% in size). The settings on record: AR-bla HEK293 viability, CellTiter-Glo luminescence, 16 h. Background: In qHTS, concentration-response curves come from the screen itself.
Take `CCCCCCCCCC(CC)c1ccc(S(=O)(=O)O)cc1` (stereo unspecified): the Potency is active: 27.5 µM.

For `NNC(N)=S`, the Potency was active: 43.6 µM.

For the compound `ClC1=C(Cl)[C@]2(Cl)[C@@H]3[C@@H]4C[C@@H]([C@H]5O[C@@H]45)[C@@H]3[C@@]1(Cl)C2(Cl)Cl`, the Potency was active: 49 µM.

Turning to `Oc1cc(Cl)ccc1Oc1ccc(Cl)cc1Cl`, the Potency was active: 12.6 µM.

Another assay is described as follows: qHTS assay to identify small molecule antagonists of the androgen receptor (AR) signaling pathway using the MDA cell line - cell viability counter screen (AID 743041; note: nearly all actives have a fitted effect of over 45% in size; for viability change, negative = cytotoxic: % is set by controls: 0 for no effect and ±100 for the full control effect). The settings on record: MDA-kb2 viability, CellTiter-Fluor, 16 h, cells co-treated with R1881 androgen agonist; series mostly up to 70.3 µM; viability change, negative = cytotoxic: at the top concentration. The method in brief:
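Cells were plated at 3,000 per well and left 5 h. Compounds in DMSO were then pinned in, followed by R1881. After 16 h at 37C, CellTiter-Fluor fluorescence gave viability.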
`CC(C)CC(C)Nc1ccc(Nc2ccccc2)cc1` (stereo unspecified): the Potency was active: 60.1 µM.

For the compound `CCCCCCCCCCCC[N+](C)(C)CCOc1ccccc1`, the Potency is active: 68.6 µM.

Turning to `Nc1ccc(-c2ccc(N)c(Cl)c2)cc1Cl`, the “viability change, negative = cytotoxic” value was inactive: 4.57%.

For the compound `Nc1ccc(N=Nc2ccccc2)cc1`, the Potency was active: 54.5 µM.

In the case of `Oc1cc(Cl)ccc1Oc1ccc(Cl)cc1Cl`, the Potency was active: 27.3 µM.

A short description of another assay: qHTS assay to identify small molecule antagonists of the estrogen related receptor signaling pathway with the pleiotropic PPARgamma coactivator (PGC) from Tox21 10K library - cell viability counter screen (AID 1224840; active = well fitted cell-killing curve with a large enough effect in the repeat runs, not every such curve was filed as active; note: nearly all actives have a fitted effect of over 40% in size; for viability change, negative = cytotoxic: % is set by controls: 0 for no effect and ±100 for the full control effect). The settings on record: PGC/ERR reporter cells viability, CellTiter-Fluor, 17.5 h; series mostly up to 92.4 µM; viability change, negative = cytotoxic: at the top concentration. From the text:
National Center for Advancing Translational Sciences [NCATS]
NIH Chemical Genomics Center [NCGC]
U.S. Environmental Protection Agency [EPA]
National Institutes of Environmental Health Sciences [NIEHS]
National Toxicology Program [NTP]
U.S. Food and Drug Administration [FDA]
Estrogen related receptors (ERRs), the first orphan nuclear receptors discovered, play an important role in the control of cellular energy metabolism. ERRs are required for high-energy production in response to the environmental challenges. The pleiotropic PPARgamma coactivator (PGC) is a major partner of ERR and a key regulator in energy homeostasis. Together they have been implicated in the etiology of metabolic disorders such as Type 2 diabetes and metabolic syndrome. ERR-alpha was also identified as an adverse marker for breast cancer progression; ERR-alpha-positive tumors have a poor prognosis. To screen and to identify environmental compounds that perturb the ERR and PGC/ERR signaling pathways could provide valuable information for potential therapeutic or preventive measures in the treatment of metabolic disease. To differentiate true PGC/ERR antagonists or agonist from cytotoxic substances, the assay is multiplexed with cell viability assay.
Tox21 Assay Protocol Summary:
The PGC/ERR cells were dispensed at 2,000 cells/5 ul/well in 1536-well white plates using a Multidrop dispenser. After the assay plates were incubated at a 37 C/5% CO2 incubator for 6 hours, 23 nL of compounds dissolved in DMSO, positive and negative controls or DMSO only was transferred to the assay plate by a pin tool. The plates were incubated at 37 C for 17.5 hours. 1 ul/well of CellTiter-Fluor reagent was added into the assay plates using a Flying Reagent Dispenser. After 30-minute incubation at 37 C/5% CO2, the fluorescence intensity in the plates was measured using a ViewLux plate reader.
Turning to `CC(C)(C)c1cc(O)ccc1O`, the “viability change, negative = cytotoxic” value was inactive: 1.51%.

On to `CC(C)(C)CC(C)(C)c1ccc(O)cc1`, for which the Potency was active: 48.6 µM.

Regarding `COc1nn(CSP(=S)(OC)OC)c(=O)s1`, the “viability change, negative = cytotoxic” value is inactive: -14.9%.

As for `CCOP(=O)(NC(C)C)Oc1ccc(SC)c(C)c1` (stereo unspecified), the “viability change, negative = cytotoxic” value is inactive: -6.78%.

The nature of the next assay: qHTS assay to identify small molecule antagonists of the estrogen receptor beta (ER-beta) signaling pathway - cell viability counter screen (AID 1259382). Note: nearly all actives have a fitted effect of over 55% in size. The settings on record: ER-beta-UAS-bla HEK293T viability, CellTiter-Glo luminescence, 16 h. In outline: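 Tox21 10K library tested in qHTS format on ER-beta-bla HEK293T cells stimulated with 1nM E2; 16 hr treatment at 37C. Same-well CellTiter-Glo luminescence served as the cell viability measure.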
Take `O=S(=O)(O)C(F)(F)C(F)(F)C(F)(F)C(F)(F)C(F)(F)C(F)(F)C(F)(F)C(F)(F)F`: the Potency was active: 26.5 µM.

On to `CCCCCCCCCC(CC)c1ccc(S(=O)(=O)O)cc1` (stereo unspecified), for which the Potency was active: 25.8 µM.

Turning to `ClC1=C(Cl)[C@]2(Cl)[C@@H]3[C@@H]4C[C@@H]([C@H]5O[C@@H]45)[C@@H]3[C@@]1(Cl)C2(Cl)Cl`, the Potency is active: 68.6 µM.

Source of the values: PubChem BioAssay (Tox21).
